This is an account of results in the supplement of paper PMC12230231.

± gives the standard deviation of the averaged measurements. Restriction of a single-cycle SIVsab GFP reporter by TRIM5α v1-loop variants in CRFK cells. Human variants: read share among cells still uninfected after two challenges over input, higher = gained restriction. Rhesus variants: share among infected cells over input, higher = lost restriction. Reporter dose not given per row. No active / inactive call per row; the paper calls a change when both replicates lie above its controls (mean + 2 SD of stop or wild-type variants, or the top frameshift score). Residues outside the varied loop are taken from Swiss-Prot. The paper reads the human single-substitution scores as noise; they and the rhesus combinations repeat poorly (rank correlation 0.3 to 0.4), indel scores repeat only for the top variants, rhesus substitutions well (0.9).

The data set concerns SIVsab (simian immunodeficiency virus of sabaeus monkeys), single-cycle GFP reporter, in CRFK cells. Nature of the data set: enrichment among uninfected cells over input (fold); higher = stronger restriction. The following applies: library: human / rhesus combinations. As to the method: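 Pools of CRFK cells expressing variants of the TRIM5α v1 loop were challenged with the single-cycle reporter, sorted by GFP and sequenced; mean of two replicates.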
In the case of “MASGILVNVKEEVTCPICLELLTQPLSLDCGHSFCQACLTANHKKSMLDKGESSCPVCRISYQPENIRPNRHVANIVEKLREVKLSPEGQKVDHCARHGEKLLLFCQEDGKVICWLCERSQEHRGHHTFLTEEVAREYQVKLQAALEMLRQKQQEAEELEADIREEKASWKTQIQYDKTNVLADFEQLRDILDWEESNELQNLEKEEEDILKSLTNSETEMVQQTQSLRELISDLEHRLQGSVMELLQGVDGVIKRTENVTLKKPETFPKNQRRVFRAPDLKGMLEVFRELTDVRRYWVDVTVAPNNISCAVISEDKRQVSSPKPQIIYGAPGTRYPSFTNFNYCTGILGSQSITSGKHYWEVDVSKKTAWILGVCAGFQPDAMCNIEKNENYQPKYGYWVIGLEEGVKCSAFQDSSFHTPSVPFIVPLSVIICPDRVGVFLDYEACTVSFFNITNHGFLIYKFSHCSFSQPVFPYLNPRKCGVPMTLCSPSS [human TRIM5α, 330-340 = GAPGTRYPSFT]”, the enrichment came out at 0.00242 ± 0.0006.

Consider “MASGILVNVKEEVTCPICLELLTQPLSLDCGHSFCQACLTANHKKSMLDKGESSCPVCRISYQPENIRPNRHVANIVEKLREVKLSPEGQKVDHCARHGEKLLLFCQEDGKVICWLCERSQEHRGHHTFLTEEVAREYQVKLQAALEMLRQKQQEAEELEADIREEKASWKTQIQYDKTNVLADFEQLRDILDWEESNELQNLEKEEEDILKSLTNSETEMVQQTQSLRELISDLEHRLQGSVMELLQGVDGVIKRTENVTLKKPETFPKNQRRVFRAPDLKGMLEVFRELTDVRRYWVDVTVAPNNISCAVISEDKRQVSSPKPQIIYGAPGTRYPSFVNFNYCTGILGSQSITSGKHYWEVDVSKKTAWILGVCAGFQPDAMCNIEKNENYQPKYGYWVIGLEEGVKCSAFQDSSFHTPSVPFIVPLSVIICPDRVGVFLDYEACTVSFFNITNHGFLIYKFSHCSFSQPVFPYLNPRKCGVPMTLCSPSS [human TRIM5α, 330-340 = GAPGTRYPSFV]”, for which the enrichment was found to be 0.276 ± 0.38.

Take “MASGILVNVKEEVTCPICLELLTQPLSLDCGHSFCQACLTANHKKSMLDKGESSCPVCRISYQPENIRPNRHVANIVEKLREVKLSPEGQKVDHCARHGEKLLLFCQEDGKVICWLCERSQEHRGHHTFLTEEVAREYQVKLQAALEMLRQKQQEAEELEADIREEKASWKTQIQYDKTNVLADFEQLRDILDWEESNELQNLEKEEEDILKSLTNSETEMVQQTQSLRELISDLEHRLQGSVMELLQGVDGVIKRTENVTLKKPETFPKNQRRVFRAPDLKGMLEVFRELTDVRRYWVDVTVAPNNISCAVISEDKRQVSSPKPQIIYGAPGTRYPSLVNFNYCTGILGSQSITSGKHYWEVDVSKKTAWILGVCAGFQPDAMCNIEKNENYQPKYGYWVIGLEEGVKCSAFQDSSFHTPSVPFIVPLSVIICPDRVGVFLDYEACTVSFFNITNHGFLIYKFSHCSFSQPVFPYLNPRKCGVPMTLCSPSS [human TRIM5α, 330-340 = GAPGTRYPSLV]”: the enrichment was found to be 0.254 ± 0.35.

With “MASGILVNVKEEVTCPICLELLTQPLSLDCGHSFCQACLTANHKKSMLDKGESSCPVCRISYQPENIRPNRHVANIVEKLREVKLSPEGQKVDHCARHGEKLLLFCQEDGKVICWLCERSQEHRGHHTFLTEEVAREYQVKLQAALEMLRQKQQEAEELEADIREEKASWKTQIQYDKTNVLADFEQLRDILDWEESNELQNLEKEEEDILKSLTNSETEMVQQTQSLRELISDLEHRLQGSVMELLQGVDGVIKRTENVTLKKPETFPKNQRRVFRAPDLKGMLEVFRELTDVRRYWVDVTVAPNNISCAVISEDKRQVSSPKPQIIYGAPGTRYPTLVNFNYCTGILGSQSITSGKHYWEVDVSKKTAWILGVCAGFQPDAMCNIEKNENYQPKYGYWVIGLEEGVKCSAFQDSSFHTPSVPFIVPLSVIICPDRVGVFLDYEACTVSFFNITNHGFLIYKFSHCSFSQPVFPYLNPRKCGVPMTLCSPSS [human TRIM5α, 330-340 = GAPGTRYPTLV]”, the enrichment stood at 0.0122 ± 0.0017.
